According to PubChem BioAssay AID1460 (National Center for Advancing Translational Sciences (NCATS), 2008):
Values joined by “and” are separate entries in the source; they are usually repeats but may differ in a detail not shown here. Equal entries are not always repeated. Out of some 270,000 compounds screened, about 5,800 (2.1%) were called active. Inconclusive results, whose numbers are uncertain, are shown with a selection of clear calls. Calls come from the whole dose curve; as a rule, active = well fitted inhibition curve with a large enough effect; inconclusive = small, poorly fitted or top-dose-only effect; inactive = flat fitted curve, though single readings scatter. A potency beside an inconclusive call is a rough fit, not a confirmed value.

target: Microtubule-associated protein tau (Homo sapiens) (UniProt P10636); test: qHTS for Inhibitors of Tau Fibril Formation, Thioflavin T Binding; conditions: recombinant tau K18 P301L (four-repeat tau fragment), heparin-induced fibrillization, ThT fluorescence; series mostly up to 57.4 µM; activity, negative = inhibition: at the top concentration; note: nearly all actives have a fitted effect of over 55% in size
Method in brief: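 Recombinant human tau K18 fragment […] carrying P301L, 15 uM unlabeled plus 0.24 uM Alexa 594-labeled, was fibrillized with 20 uM heparin in 100 mM sodium acetate pH 7 for 6 hr at 37 C; 30 uM ThT fluorescence read after 1 hr.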
% is set by controls: 0 for no effect and ±100 for the full control effect; potency is the fitted concentration of half-maximal effect; tags give direction and shape of the fitted curve.

Sequence of UniProt P10636 (P10636 whole entry, looked up, the tested form may be a part): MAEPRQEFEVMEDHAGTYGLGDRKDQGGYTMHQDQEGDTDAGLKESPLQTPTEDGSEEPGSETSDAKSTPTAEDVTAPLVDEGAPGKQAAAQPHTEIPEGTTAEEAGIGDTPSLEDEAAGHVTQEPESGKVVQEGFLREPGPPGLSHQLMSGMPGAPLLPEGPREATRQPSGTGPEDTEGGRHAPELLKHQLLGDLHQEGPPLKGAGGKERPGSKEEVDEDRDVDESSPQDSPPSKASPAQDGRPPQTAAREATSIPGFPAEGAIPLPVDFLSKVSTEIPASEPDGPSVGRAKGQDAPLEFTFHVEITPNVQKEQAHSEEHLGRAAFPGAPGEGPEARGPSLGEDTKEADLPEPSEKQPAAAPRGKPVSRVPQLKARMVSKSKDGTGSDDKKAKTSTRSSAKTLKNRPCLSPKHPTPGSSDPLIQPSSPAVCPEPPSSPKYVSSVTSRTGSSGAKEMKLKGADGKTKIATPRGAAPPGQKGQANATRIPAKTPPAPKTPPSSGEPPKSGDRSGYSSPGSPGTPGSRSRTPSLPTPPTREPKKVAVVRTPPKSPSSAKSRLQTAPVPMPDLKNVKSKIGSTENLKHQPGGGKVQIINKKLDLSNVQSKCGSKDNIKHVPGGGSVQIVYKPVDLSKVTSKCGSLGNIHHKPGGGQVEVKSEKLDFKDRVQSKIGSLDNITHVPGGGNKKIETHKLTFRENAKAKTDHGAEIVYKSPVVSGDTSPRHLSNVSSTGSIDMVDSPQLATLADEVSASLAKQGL

Row | SMILES | activity, negative = inhibition | Potency
1 | CCOC(=O)c1c(NC(=O)Cn2nnc(-c3ccc(Cl)cc3)n2)sc(CC)c1C | inactive: -13.9% | –
2 | O=C(Nc1cccnc1)c1ccccc1O | inactive: -5.22% | –
3 | CCOCCCNC(=S)N1CCCN(c2nc3c(C)c(C)ccc3cc2C#N)CC1 | inactive: -4.36% | –
4 | CCCC(=O)NC(c1ccco1)c1cc(Cl)c2cccnc2c1O (stereo unspecified) | inactive: -10% | –
5 | CCOc1ccc2c(c1)n(CO)c(=S)n2CO | inactive: -4.74% | –
6 | CCOC(=O)c1cnc2ccc(C(=O)OC)cc2c1Nc1ccccc1CC | – | inconclusive: 11.2 µM [inhibitor, partial curve]
7 | COc1ccc(NC(=O)CSc2nc(N)c3cc4c(nc3n2)CCCC4)c(OC)c1 | – | inconclusive: 17.8 µM [inhibitor, partial curve]
8 | Cc1ccccc1Cn1nnc2c(=O)[nH]c(C3CCN(C(=O)c4ccccc4)CC3)nc21 | inactive: 1.65% | –
9 | C=CCN1C(=O)[C@]2(c3ccccc31)C1CCCC=C1C(C#N)=C(N)C2(C#N)C#N (stereo partly specified) | – | inconclusive: 25.1 µM [inhibitor, partial curve]
10 | OC1c2ccccc2-c2nc3ccccc3cc21 (stereo unspecified) | – | inconclusive: 25.1 µM [inhibitor, single point]
11 | COC(=O)C1=C(C)N(Cc2ccccc2)[C@]23O[C@](C(=O)OC)(C(=O)N2C1c1ccccc1)C(c1ccccc1)C3C(=O)c1ccccc1 (stereo partly specified) | inactive: -4.98% [at 11.5 µM] and inactive: -15.4% [at 11.5 µM] | –
12 | CCCC(C)C(=O)Nc1nc(C)c(-c2csc(Nc3cc(Cl)ccc3C)n2)s1 (stereo unspecified) | – | inconclusive: 14.1 µM [inhibitor, partial curve]
13 | O=C(CCc1nnc(CCCCc2ccccc2)o1)NCc1cc(F)ccc1F | – | inconclusive: 15.8 µM [inhibitor, partial curve]
14 | CCOc1cc(/C=N/NC(=O)COc2cccc(C)c2)ccc1OC(=O)c1cccs1 | – | inconclusive: 2.82 µM [inhibitor, full curve, poor fit]
15 | CC(C)(C)n1cnc2cc(NCc3ccccc3Cl)ccc21 | – | inconclusive: 25.1 µM [inhibitor, partial curve]
16 | CCOCCCNC(=O)c1ccc(CS(=O)(=O)Cc2cccc(C)c2)o1 | inactive: -8.87% | –
17 | COc1ccc(-c2csc(NC(=O)/C(N=Nc3ccccc3)=C(\C)O)n2)cc1 | – | inconclusive: 2.82 µM [inhibitor, partial curve]
18 | O=c1[nH]c2c(s1)C(c1ccco1)C1C3CCC(C3)C1S2 (stereo unspecified) | – | inconclusive: 31.6 µM [inhibitor, partial curve]
19 | Cc1ccc(NCc2nnc(SCC(=O)c3ccccc3)n2Cc2ccco2)c(C)c1 | – | inconclusive: 28.2 µM [inhibitor, partial curve]
20 | O=[N+]([O-])c1cccc2ccc(/C=C/c3ccc(F)cc3)nc12 | – | inconclusive: 7.94 µM [inhibitor, partial curve]
21 | Clc1ccc(Nc2nc(-c3cccs3)cs2)nc1 | – | inconclusive: 12.6 µM [inhibitor, partial curve]
22 | CCOC(=O)c1c(S(=O)(=O)NCC(=O)Nc2ccc(C)c(Cl)c2)c(C)n(C)c1C | inactive: -3.12% | –
23 | Cc1[nH]c2ccc(S(N)(=O)=O)cc2c1C | – | inconclusive: 20 µM [inhibitor, partial curve]
24 | Nc1ccc(S(N)(=O)=O)cc1N | – | active: 12.6 µM

Row | SMILES | activity, negative = inhibition | Potency
25 | Cc1[nH]c2c(C)cccc2c1CCNS(=O)(=O)c1cccc([N+](=O)[O-])c1 | – | inconclusive: 20 µM [inhibitor, single point]
26 | O=C(Nc1cccnc1)c1cc(-c2ccc3c(c2)OCO3)on1 | – | inconclusive: 0.891 µM [inhibitor, full curve]
27 | CC1=NN(C(=O)c2ccc(Cn3cc([N+](=O)[O-])cn3)cc2)C(O)(C(F)(F)F)C1 (stereo unspecified) | inactive: 0.126% | –
28 | N#CCc1c(C#N)c(N)nc(N2CCN(c3ccc(F)cc3)CC2)c1C#N | – | inconclusive: 14.1 µM [inhibitor, partial curve]
29 | COc1ccc(C(=O)Nc2nc3c(s2)CCc2cc(OC)ccc2-3)cc1 | – | active: 10 µM
30 | Cc1ccc(NC2=C(C(=O)c3ccccc3)N(C)S(=O)(=O)c3ccccc32)cc1 | – | inconclusive: 12.6 µM [inhibitor, partial curve]
31 | C/C(CCN1CCc2nc(-c3ccccc3)c(-c3ccccc3)cc2C1)=N\O[C@@H](C)c1cc(-c2c(C)cc(C)cc2C)no1 | – | inconclusive: 25.1 µM [inhibitor, single point]
32 | Cc1ccc(N2CCN(C(=O)c3c4c(nc5ccccc35)C(=O)N(C3CCCCC3)C4)CC2)c(C)c1 | – | inconclusive: 39.8 µM [inhibitor, single point]
33 | Cc1ccc(N2C(N)=C(C#N)C(c3cc(CN4CCOCC4)cs3)C3=C2CC(C)(C)CC3=O)cc1 (stereo unspecified) | – | inconclusive: 39.8 µM [inhibitor, partial curve]
34 | COc1cc(/C=C/C(=O)N2CCC=CC2=O)cc(OC)c1OC | – | active: 8.91 µM
35 | COc1ccc(-c2cc(=O)n(-c3nc4ccccc4[nH]3)[nH]2)cc1 | – | active: 31.6 µM
36 | Cc1n[nH]c(C)c1S(=O)(=O)N1CCCC(C(=O)Nc2ccc(Cl)cc2)C1 (stereo unspecified) | inactive: 1.33% | –
37 | CCOC(=O)Nc1nnc(-c2ccccc2OC)s1 | inactive: -2.52% | –
38 | COc1ccc(C(=O)C[n+]2ccc(-c3nnc4n3CCCCC4)cc2)cc1 | – | inconclusive: 17.8 µM [inhibitor, partial curve]
39 | Cc1ccc(C)c(Nc2nn3c(=O)c4ccc(C(=O)NCCc5ccccc5)cc4nc3s2)c1 | – | inconclusive: 1.26 µM [inhibitor, partial curve]
40 | CC(/C=N/NC(=O)Cc1cc(=O)[nH][nH]1)=C\c1ccccc1 | – | inconclusive: 10 µM [inhibitor, partial curve]
41 | CCC(=O)C1=C(c2cccc([N+](=O)[O-])c2)N(C(=O)CC)n2c(nnc2-c2ccccc2)S1 | – | inconclusive: 22.4 µM [inhibitor, partial curve]
42 | NS(=O)(=O)c1cccc(NC(=O)COC(=O)CC2CC3CCC2C3)c1 (stereo unspecified) | inactive: -0.0795% | –
43 | CCOC(=O)C(C)/C(C)=N/NC(N)=S (stereo unspecified) | inactive: -6.57% | –
44 | CCc1ccccc1N(C)C(=O)c1cnc(N2CCOCC2)c2ccccc12 | inactive: -0.403% | –
45 | Cc1cc(NC(=S)NC(=O)C2CC2)ccc1Br | – | inconclusive: 17.8 µM [inhibitor, partial curve]
46 | C=CCn1c(=O)c2ccccc2n2c(SCC(=O)c3ccccc3)nnc12 | – | inconclusive: 44.7 µM [inhibitor, single point]
47 | CCOc1cc(/C=C/c2nc3cc(C)c(C)cc3s2)ccc1OCC(=O)N1CCOCC1 | – | inconclusive: 4.47 µM [inhibitor, partial curve]
48 | Cc1ccc(-n2c(SCC(=O)Nc3ccc4c(c3)OCO4)nc3c([nH]c4ccccc43)c2=O)cc1 | inactive: 2.64% | –

Row | SMILES | activity, negative = inhibition | Potency
49 | O=C1N=c2ccccc2=C1c1sc(Nc2ccc(O)cc2)nc1O | – | active: 2.24 µM
50 | COc1ccc(NC(=S)Nc2ccc3nccnc3c2)cc1 | – | inconclusive: 12.6 µM [inhibitor, partial curve]
51 | Cc1ccc(-c2cc(C(=O)NCc3cnn(C)c3)c3cc(Br)ccc3n2)cc1 | – | inconclusive: 39.8 µM [inhibitor, single point]
52 | COc1cc(NC(=O)c2ccc([N+](=O)[O-])cc2)c(OC)cc1NC(=O)CC(C)C | inactive: -9.4% | –
53 | CCOC(=O)c1c(C)oc2cc(Br)c(OC(C)C(=O)OCC)cc12 (stereo unspecified) | – | inconclusive: 44.7 µM [inhibitor, single point]
54 | COc1ccc(C2C(=O)c3ccccc3C2=O)cc1 | – | inconclusive: 28.2 µM [inhibitor, partial curve]
55 | CCOCC(=O)Nc1sc2c(c1C(=O)OCC)CCCC2 | – | inconclusive: 25.1 µM [inhibitor, single point]
56 | CNC(=S)/N=C(/Nc1ccccc1)c1ccccc1 | inactive: -2.47% | –
57 | CN(Cc1ccccc1)C(=O)CSc1nc2ccsc2c(=O)n1-c1ccc(F)cc1 | inactive: -0.678% | –
58 | CN(C(=O)CC1C(=O)NCCN1Cc1ccoc1)C1CCOCC1 (stereo unspecified) | inactive: 0.702% | –
59 | CSc1ccc(NC(=O)N2CCN(c3nc4ccccc4s3)CC2)cc1 | – | inconclusive: 0.794 µM [inhibitor, full curve]
60 | COc1cc(OC)c2c(OC)c(-c3ccc4c(c3)OCO4)c(=O)oc2c1 | – | inconclusive: 2.82 µM [inhibitor, full curve, poor fit]
61 | Cc1csc(Nc2ccc(Cl)cc2)n1 | – | inconclusive: 14.1 µM [inhibitor, partial curve]
62 | COc1ccc(NC(=O)C(=O)NNC(=O)c2cccs2)cc1 | – | inconclusive: 15.8 µM [inhibitor, partial curve, poor fit]
63 | CC(=O)c1sc2nsc(SCCN3CCCCC3)c2c1N | – | inconclusive: 31.6 µM [inhibitor, partial curve]
64 | COc1ccc(NC(=S)NCc2cccn2C)cc1 | – | inconclusive: 11.2 µM [inhibitor, partial curve]
65 | COc1ccc(CS(=O)(=O)c2nc(C)cc(C)c2S(C)(=O)=O)cc1 | inactive: 3.6% | –
66 | CC1(C)C(=O)OC(c2cc(Br)ccc2O)C(C)(C)C1=O (stereo unspecified) | inactive: 8.88% | –
67 | O=C(N/N=C/c1ccc(O)cc1O)/C(=C/c1ccccc1)CCO | – | inconclusive: 14.1 µM [inhibitor, partial curve]
68 | N/C(=N\OC(=O)COc1ccc2ccccc2c1Br)c1ccncc1 | – | inconclusive: 5.01 µM [inhibitor, full curve]
69 | Cc1cccc(NC(=O)NC2CC(=O)N(c3ccc4c(c3)OCCO4)C2)n1 (stereo unspecified) | – | inconclusive: 25.1 µM [inhibitor, single point]
70 | CN1C(C(=O)Nc2ccccn2)=C(O)c2sccc2S1(=O)=O | – | inactive
71 | Nc1nonc1N/N=C/c1c(O)ccc2ccccc12 | – | inconclusive: 12.6 µM [inhibitor, partial curve]
